Values joined by “and” are separate entries in the source; they are usually repeats but may differ in a detail not shown here. Identical values can stand only once.
Tests used:
[1] = rat plasma stability; assay type: in vitro ADME; settings: remaining at 60 min vs 0 min, 37° C.
Description: Rat plasma stability. The rat plasma stability was determined by our previously described method. Briefly, the test compound (2.5 μL, 1 mM DMSO stock solution) was mixed with an aliquot of rat serum (100 μL, Abcam, Inc.) in an Eppendorf tube. The tube was vortexed and incubated at 37° C. for 0 min and 60 min, separately, before the addition of 250 μL ice-cold acetonitrile. The resulting mixture was centrifuged at 10,000 g for 20 min and the supernatant was collected for analysis on the HPLC system (UltiMate 3000). The same analytical conditions were used as those in the Log D7.4 assay. The plasma stability value was expressed as (peak area at 60 min)/(peak area at 0 min)×100%. The assay was repeated at least three times for each compound. Compound 24 was used as internal standard.

[2] = rat liver microsome stability; assay type: in vitro ADME, Sprague-Dawley rat; settings: remaining at 60 min vs 0 min, NADPH, 37° C.
Description: Rat liver microsome stability. The rat liver microsome stability was measured by our previously described method. Briefly, 1.5 μL of 1 mM compound solution in DMSO was added to an Eppendorf tube containing 432 μL of PBS buffer. The tube was kept at 37° C. for 10 min before a 13 μL aliquot of the Sprague-Dawley rat liver microsome (Sigma-Aldrich, No. M9066) was added. The tube was vortexed before shaken at 37° C. for 5 min. The NADPH (50 μL, 10 mM in PBS solution) was added and the resulting mixture was incubated at 37° C. for 0 min and 60 min, separately, before the addition of 250 μL of ice-cold acetonitrile. The mixture was centrifuged at 10,000 g for 20 min and supernatant was collected for analysis on the HPLC system (UltiMate 3000). The same analytical conditions were employed as those in the Log D7.4 assay. The liver microsome stability value was expressed as (peak area at 60 min)/(peak area at 0 min)×100%. The assay was repeated at least three times for each compound. Compound 24 was used as internal standard and N-(4-chloro-3-methoxyphenyl)pyridine-2-carboxamide (ML128) was employed as positive control.

[3] = test system: group II mGluRs; settings: literature value; read-out: IC50 (group II NAM); cited from earlier work
[4] = biological target: T1, mGluR2 (Rattus norvegicus, UniProt P31421); assay: PET imaging of [11C]13 in rats, pretreatment (blocking) studies; settings: for decrease of radioactivity accumulation, average across ROIs: blocking agent iv 1 min before [11C]13
T1 sequence (P31421 19-872): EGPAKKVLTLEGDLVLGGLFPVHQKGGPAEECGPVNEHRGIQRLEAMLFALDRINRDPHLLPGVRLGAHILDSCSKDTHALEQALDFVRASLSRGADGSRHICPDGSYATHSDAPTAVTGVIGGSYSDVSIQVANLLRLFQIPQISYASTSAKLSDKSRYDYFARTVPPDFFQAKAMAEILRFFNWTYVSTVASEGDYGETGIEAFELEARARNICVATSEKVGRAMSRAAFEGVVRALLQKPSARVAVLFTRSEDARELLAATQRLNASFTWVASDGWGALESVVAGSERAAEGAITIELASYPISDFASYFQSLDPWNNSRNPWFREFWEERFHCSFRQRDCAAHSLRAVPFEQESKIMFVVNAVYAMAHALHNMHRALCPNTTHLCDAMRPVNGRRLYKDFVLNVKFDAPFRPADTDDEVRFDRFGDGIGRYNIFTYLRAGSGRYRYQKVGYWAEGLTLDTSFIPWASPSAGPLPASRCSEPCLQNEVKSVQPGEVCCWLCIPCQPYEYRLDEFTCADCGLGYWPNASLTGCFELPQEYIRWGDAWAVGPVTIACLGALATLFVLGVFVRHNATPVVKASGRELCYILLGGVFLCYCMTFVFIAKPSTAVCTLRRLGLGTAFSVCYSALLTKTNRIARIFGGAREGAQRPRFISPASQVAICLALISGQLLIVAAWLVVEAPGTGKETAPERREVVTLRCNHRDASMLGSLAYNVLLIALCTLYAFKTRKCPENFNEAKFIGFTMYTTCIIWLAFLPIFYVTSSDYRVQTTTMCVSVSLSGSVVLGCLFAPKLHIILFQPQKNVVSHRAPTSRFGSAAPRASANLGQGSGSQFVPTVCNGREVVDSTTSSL

[5] = test system: mGluR2; assay: PET imaging of [11C]13 in a nonhuman primate, blocking with compound 9; assay type: in vivo, cynomolgus monkey (Macaca fascicularis); settings: 9 1.0 mg/kg iv 20 min before tracer, Logan VT
[6] = biological target: mGluR2 (Homo sapiens, UniProt Q14416); settings: literature values of known NAMs; read-out: IC50 (mGluR2 NAM); cited from earlier work
Chain of mGluR2 (Homo sapiens, UniProt Q14416) (Q14416 19-872): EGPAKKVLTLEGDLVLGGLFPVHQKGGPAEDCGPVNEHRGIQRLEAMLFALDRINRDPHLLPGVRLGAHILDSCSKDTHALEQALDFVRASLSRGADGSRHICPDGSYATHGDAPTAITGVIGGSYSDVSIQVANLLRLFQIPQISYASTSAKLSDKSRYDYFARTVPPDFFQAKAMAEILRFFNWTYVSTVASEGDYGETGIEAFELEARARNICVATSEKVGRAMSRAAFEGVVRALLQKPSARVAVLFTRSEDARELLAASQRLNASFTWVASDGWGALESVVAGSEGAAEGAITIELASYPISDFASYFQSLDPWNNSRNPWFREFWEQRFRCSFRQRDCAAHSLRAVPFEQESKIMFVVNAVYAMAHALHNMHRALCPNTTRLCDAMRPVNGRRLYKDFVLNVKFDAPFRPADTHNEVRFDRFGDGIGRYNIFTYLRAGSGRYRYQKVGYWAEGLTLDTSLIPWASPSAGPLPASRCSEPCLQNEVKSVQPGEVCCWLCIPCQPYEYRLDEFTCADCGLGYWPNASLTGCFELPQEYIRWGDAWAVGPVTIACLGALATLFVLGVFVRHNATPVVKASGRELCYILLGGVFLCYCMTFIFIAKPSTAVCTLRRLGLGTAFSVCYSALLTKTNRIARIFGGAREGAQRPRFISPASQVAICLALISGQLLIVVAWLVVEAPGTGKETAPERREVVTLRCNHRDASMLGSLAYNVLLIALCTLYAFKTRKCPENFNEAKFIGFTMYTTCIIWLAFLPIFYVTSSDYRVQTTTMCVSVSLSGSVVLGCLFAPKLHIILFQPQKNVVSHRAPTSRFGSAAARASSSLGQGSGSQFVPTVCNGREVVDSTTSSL

[7] = arterial blood analysis of [11C]13 in a nonhuman primate
[8] = biological target: T1, mGluR2; design: host or cells: rat brain in vivo; settings: rat brain, earlier tracers; cited from earlier work
[9] = biological target: T2, mGluR2 (Mus musculus, UniProt Q14BI2); assay: PET imaging of [18F]mG2N002 in Alzheimer's mouse model; assay type: in vivo, 3xTg-AD and control mice (129/C57BL6)
T2 construct: from tissue; host or cells: mouse brain in vivo
T2 sequence (Q14BI2 19-872): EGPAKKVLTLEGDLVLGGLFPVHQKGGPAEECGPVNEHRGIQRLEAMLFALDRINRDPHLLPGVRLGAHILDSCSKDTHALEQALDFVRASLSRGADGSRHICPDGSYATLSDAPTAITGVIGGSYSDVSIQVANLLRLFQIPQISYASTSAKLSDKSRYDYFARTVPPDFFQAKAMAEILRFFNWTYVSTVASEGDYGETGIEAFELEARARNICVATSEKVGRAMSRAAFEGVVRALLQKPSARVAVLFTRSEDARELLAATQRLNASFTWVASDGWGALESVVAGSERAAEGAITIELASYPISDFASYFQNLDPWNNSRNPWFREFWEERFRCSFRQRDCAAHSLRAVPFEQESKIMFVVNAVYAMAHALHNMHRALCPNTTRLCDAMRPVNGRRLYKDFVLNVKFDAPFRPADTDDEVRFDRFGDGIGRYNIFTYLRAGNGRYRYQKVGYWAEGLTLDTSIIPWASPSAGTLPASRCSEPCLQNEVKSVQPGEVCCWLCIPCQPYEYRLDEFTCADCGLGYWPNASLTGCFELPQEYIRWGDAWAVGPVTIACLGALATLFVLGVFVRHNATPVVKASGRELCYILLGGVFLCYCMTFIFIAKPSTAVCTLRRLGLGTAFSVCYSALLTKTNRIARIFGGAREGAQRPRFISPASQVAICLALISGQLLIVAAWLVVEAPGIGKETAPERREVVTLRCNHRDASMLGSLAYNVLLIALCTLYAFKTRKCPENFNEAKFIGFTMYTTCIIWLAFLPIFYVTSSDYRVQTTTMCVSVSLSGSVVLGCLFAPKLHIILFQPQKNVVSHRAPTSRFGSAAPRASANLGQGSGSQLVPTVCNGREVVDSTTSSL
Description: FIG. 12A Distribution of [^18F]mG2N002 in the brain of 10 months old male 3xTg-AD and control mice. The images show an accumulation of [^18F]mG2N002 at the time window of 2-20 min after injection of the radioactivity (120 μCi in 0.05 ml) into the tail vein. […] Axial and sagittal views clearly show the difference between accumulation in different brain areas in AD and control mice.
FIG. 12B Preliminary studies of the binding distribution of [^18F]mG2N002 in female and male 3xTg-AD and control mice. […] Additionally, uptake in male AD mice was lower than in control.
Animal compliance, PET imaging protocol, and image analysis are the same as the ones described in Yuan, G. et al. J. Med. Chem. 2022, 65(3), 2593-2609 under the sections of “Animal Procedures” and “PET imaging studies in rats”, except the animal model (i.e., mouse) and the amount of injected radioactivity (i.e., 120 μCi in 0.05 ml for each mouse). Animal model: 10-month-old male and female 3xTg-AD and control mice (129/C57BL6).

[10] = biological target: GRM2 (Homo sapiens, UniProt Q14416); assay: mG2N003 binding potency, protocol A (Yuan et al. J. Med. Chem. 2022)
Chain of GRM2 (Q14416 19-872, species assumed): as the sequence (Q14416 19-872) above

[11] = 1 min before tracer, highest decrease
[12] = 1 min before tracer, least decrease

**Q.** Which results are given for `CC1(C)CCc2c(-c3ccc(F)cc3F)cc(C(N)=O)nc2O1` [Compound 12, 5-(2,4-difluorophenyl)-2,2-dimethyl-3,4-dihydro-2H-pyrano[2,3-b]pyridine-7-carboxamide]?
**A.** rat plasma stability [1]: > 92%; rat liver microsome stability [2]: > 92%

**Q.** For `N#Cc1cc(C2=Nc3ccc(Br)cc3NC(=O)C2)ccn1` [MNI-137], which IC50 [3] is on record?
**A.** 8.3 nM

**Q.** And the “decrease of radioactivity accumulation, hypothalamus” value [4, 11]?
**A.** 42.6%

**Q.** And the “decrease of radioactivity accumulation, cerebellum” value [4, 12]?
**A.** 39.6%

**Q.** And the “decrease of radioactivity accumulation, cerebellum” value ([4]; 20 min before tracer, highest decrease)?
**A.** 15.2%

**Q.** What about the “decrease of radioactivity accumulation, striatum” value ([4]; 20 min before tracer, lowest decrease) of the same compound?
**A.** 11.1%

**Q.** What about the “decrease of radioactivity accumulation, average across ROIs” value ([4]; 9 0.5 mg/kg, 26 0.2 mg/kg) of the same compound?
**A.** 41.7±1.1%

**Q.** And the “decrease of radioactivity accumulation, total average” value ([4]; blocking agent iv 20 min before [11C]13, 9 0.5 mg/kg, 26 0.2 mg/kg)?
**A.** 12.7±1.7%

**Q.** For `Cn1ccc(COc2cnc(C(N)=O)cc2-c2ccc(F)cc2)n1` [VU6001966], which “decrease of radioactivity accumulation, cortex” value [4, 11] is on record?
**A.** 38.5%

**Q.** And the “decrease of radioactivity accumulation, thalamus” value [4, 12]?
**A.** 17.1%

**Q.** And the “decrease of radioactivity accumulation, average across ROIs” value ([4]; 9 0.5 mg/kg, 26 0.2 mg/kg)?
**A.** 22.4±7.3%

**Q.** What about the “decrease of VT estimates, cerebellum gray” value ([5]; 120 min, t* 30 min) of the same compound?
**A.** 16.8%

**Q.** And the “decrease of VT estimates, occipital gyrus” value ([5]; 120 min, t* 30 min)?
**A.** 3.2%

**Q.** And the “decrease of VT estimates, average in the whole brain” value ([5]; listed as 9, 1 mg/kg)?
**A.** 14.1% and 14%

**Q.** And the IC50 [6]?
**A.** 78 nM

**Q.** With `CC1(C)CCc2c(-c3ccc(O[11CH3])cc3F)cc(C(N)=O)nc2O1` [[^11C]13, 5-(2-fluoro-4-[^11C]methoxyphenyl)-2,2-dimethyl-3,4-dihydro-2H-pyrano[2,3-b]pyridine-7-carboxamide] as the compound, how does the “percent parent (% PP) in plasma” value ([7]; at 30 min) read?
**A.** 53±5.3%

**Q.** And the “plasma-free fraction (fp)” value ([7]; baseline condition)?
**A.** 0.131±0.006

**Q.** What about the “plasma-free fraction (fp)” value ([7]; blocking study) of the same compound?
**A.** 0.099±0.011

**Q.** Which results are given for `COc1ccc(-c2cc(Cl)nc3c2CC(C)(C)CO3)c(F)c1` [[^11C]MG-1904]?
**A.** SUVmax [8]: 1.7; IC50 [6]: 24 nM

**Q.** With `CC1(C)CCc2c(-c3ccc([18F])cc3F)cc(C(N)=O)nc2O1` [[^18F]mG2N002, S-(2-fluoro-4-[^18F]fluorophenyl)-2,2-dimethyl-3,4-dihydro-2H-pyrano[2,3-b]pyridine-7-carboxamide] as the compound, how does the “accumulation in brain of AD versus control mice” value ([9]; 10 months old male 3xTg-AD vs control, 2-20 min) read?
**A.** lower accumulation of [^18F]mG2N002 in AD mouse compared to the control mouse

**Q.** What about the brain permeability ([9]; mice, 120 μCi iv) of the same compound?
**A.** excellent brain permeability

**Q.** And the “binding distribution in female and male AD and control mice” value ([9]; preliminary studies, all brain areas)?
**A.** lower in female AD mice than in female control or male AD mice

**Q.** Which IC50 [10] does the source give for `COc1ccc(-c2cc(C(N)=O)nc3c2CC(C)(C)CO3)c(F)c1` [mG2N003, 5-(2-Fluoro-4-methoxyphenyl)-3,3-dimethyl-3,4-dihydro-2H-pyrano[2,3-b]pyridine-7-carboxamide] here?
**A.** 578 nM

**Q.** What about the “decrease in potency toward GRM2 relative to compound 2-7” value ([10]; p-F replaced by methoxy) of the same compound?
**A.** > 20 ×

From patent US20250340562A1, “CHROMANE IMAGING LIGANDS” (The General Hospital Corporation, priority 2021, published 2025)
